Assay results as given in PubChem BioAssay AID485281 (National Center for Advancing Translational Sciences (NCATS), 2010).
About 260 (0.074%) of roughly 350,000 compounds were called active. The shares of active, inactive and inconclusive entries below differ from those in the screen. Calls come from the whole dose curve; as a rule, active = well fitted inhibition curve with a large enough effect; inconclusive = small, poorly fitted or top-dose-only effect; inactive = no such curve, though single readings can be large or run the other way. Potencies beside an inconclusive call are fits to weak or partial responses and may not hold up.

Target: Ferritin light chain (Equus caballus) (UniProt P02791)
UniProt P02791, sequence (P02791 whole entry, looked up): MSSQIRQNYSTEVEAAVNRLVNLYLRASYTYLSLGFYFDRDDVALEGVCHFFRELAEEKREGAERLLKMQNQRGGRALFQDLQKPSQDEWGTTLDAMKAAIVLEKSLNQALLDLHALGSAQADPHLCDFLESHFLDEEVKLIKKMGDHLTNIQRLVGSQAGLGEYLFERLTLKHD
Experiment: qHTS Assay for Identification of Novel General Anesthetics; note: nearly all actives have a fitted effect of over 20% in size
Conditions: apoferritin/1-aminoanthracene competitive binding, fluorescence; series mostly up to 77.5 µM
Method in brief: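 Read-out: endpoint 1-AMA fluorescence, excitation 380 nm and emission 535 nm, after compounds sit 10 min at room temperature with 10 uM horse-spleen apoferritin in 50% saturated 1-AMA/PBS. Values come from four-parameter Hill fits.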
Potency is the fitted concentration of half-maximal effect; tags give direction and shape of the fitted curve.

Structure (SMILES) | Potency
CCOc1ccc(S(=O)(=O)NCc2ccc(F)cc2)c2cccnc12 | inconclusive: 31.6 µM [inhibitor, partial curve]
COC(=O)CSc1c(-c2ccccc2)c2cc(Cl)ccc2[nH]c1=O | inconclusive: 39.8 µM [inhibitor, single point]
COc1ccc(-n2cnc3cc(C(=O)NCCC4=CCCCC4)ccc32)cc1 | inconclusive: 39.8 µM [inhibitor, single point]
Cc1ccc(N2C(=O)CC3(CCCC3)CC2=O)cc1 | inconclusive: 17.8 µM [inhibitor, partial curve]
COc1cccc(Nc2nc(-c3ccc(O)cc3)cs2)c1 | inconclusive: 20 µM [inhibitor, partial curve]
CCOc1ccccc1NC(=O)c1ccccc1-c1nc(-c2ccccc2)no1 | inconclusive: 14.1 µM [inhibitor, partial curve]
Cn1c(C(N)=O)cnc1Sc1ncc(C(F)(F)F)cc1Cl | inconclusive: 39.8 µM [inhibitor, partial curve]
Cc1cc(C)n(C(C[N+](=O)[O-])c2ccc(Cl)cc2)n1 (configuration not stated) | inconclusive: 15.8 µM [inhibitor, partial curve]
c1ccc(SCCc2ccncc2)cc1 | inconclusive: 20 µM [inhibitor, partial curve]
CCCCCOC(=O)C1=C(C)NC(=O)NC1c1ccccc1OCC (configuration not stated) | inconclusive: 28.2 µM [inhibitor, partial curve]
Cc1cc(N2CCOCC2)nc2ccc(NC(=S)NCc3ccc4c(c3)OCO4)cc12 | inactive
CC(C)(C)c1cccc(/C=N/O)c1O | inconclusive: 7.94 µM [inhibitor, partial curve]
Cc1ccc(CNC(=O)C(=O)NCC(c2cccs2)S(=O)(=O)c2ccccc2)cc1 (configuration not stated) | inconclusive: 0.891 µM [inhibitor, full curve, poor fit]
O=C(Cc1ccc2c(c1)CCCC2)Nc1ccccc1Br | inconclusive: 20 µM [inhibitor, partial curve]
CC(=O)c1ccc(COC(=O)Cc2ccc([N+](=O)[O-])cc2)cc1 | inconclusive: 44.7 µM [inhibitor, partial curve]
CCc1ccccc1NC(=O)CC(O)(C(=O)OC)C(F)(F)F (configuration not stated) | inconclusive: 25.1 µM [inhibitor, single point]
COc1ccc(C2/C=C\CN(CC3CC3)C(Cc3ccccc3)C(=O)N2Cc2ccc(F)cc2)cc1 (configuration not stated) | inactive
c1ccc2c(-n3cccn3)cccc2c1 | inconclusive: 22.4 µM [inhibitor, partial curve]
O=C(COC(=O)/C=C/c1cccs1)Nc1cccc(S(=O)(=O)N2CCOCC2)c1 | inconclusive: 31.6 µM [inhibitor, partial curve]
Clc1ccc(Cl)c(OCCCCNCc2ccccc2)c1 | inactive
CCOC(=O)/C=C(\C)N1N=C(c2ccccc2)CC1c1ccccc1 (configuration not stated) | inconclusive: 22.4 µM [inhibitor, partial curve]

Structure (SMILES) | Potency
CC1CCC(C(C)C)C(OC(=O)CSc2nnc(N)s2)C1 (configuration not stated) | inconclusive: 35.5 µM [inhibitor, partial curve]
CCOC(=O)c1cccc(NC(=O)Cn2cnc3nc4c(cc3c2=O)CCCC4)c1 | inconclusive: 35.5 µM [inhibitor, single point]
CCN(CC)CCCNC(=O)c1ccc2c(c1)NC(=O)C(CS(=O)(=O)Cc1ccc(F)cc1Cl)N2 (configuration not stated) | inconclusive: 50.1 µM [inhibitor, single point]
CC(=O)NN1C(=O)/C(=C/c2ccc(Br)o2)SC1=S | inconclusive: 25.1 µM [inhibitor, partial curve]
COc1ccc(-c2nnc(SCC(=O)c3ccc(O)cc3O)o2)cc1 | inactive
O=C(/C=C/c1ccccc1O)c1ccc(Cl)cc1 | inconclusive: 25.1 µM [inhibitor, partial curve]
CC(=O)Nc1cccc(C(=O)OC(C(=O)c2ccc(C)c(C)c2)c2ccccc2)c1 (configuration not stated) | inconclusive: 15.8 µM [inhibitor, partial curve]
CN(C)CC(=O)Nc1ccc(Oc2ccc(Cl)cc2)cc1 | inconclusive: 10 µM [inhibitor, partial curve]
CCC1=Nc2cc(C(=O)N3CCC(C)CC3)ccc2Sc2ccc(C)cc21 | inconclusive: 7.08 µM [inhibitor, full curve, poor fit]
CCc1ccc(NC(=O)CSc2nnnn2-c2cccnc2)cc1 | inconclusive: 35.5 µM [inhibitor, single point]
Cc1ccc(C(c2cc(Cl)c3cccnc3c2O)N2CCN(C)CC2)cc1 (configuration not stated) | inconclusive: 50.1 µM [inhibitor, single point]
CCOC(=O)C1=C(C)OC(N)=C(C#N)C1c1cc(OC)c2c(c1)OCO2 (configuration not stated) | inconclusive: 56.2 µM [inhibitor, single point]
COc1ccc(NC(=S)NC(=O)/C=C/c2ccco2)c(OC)c1 | inconclusive: 39.8 µM [inhibitor, partial curve]
Cc1ccc(OCc2nc(C#N)c(NCc3ccco3)o2)cc1 | inconclusive: 35.5 µM [inhibitor, partial curve]
CCCCN(CCCC)S(=O)(=O)c1ccc(NC(=O)c2ccc([N+](=O)[O-])cc2Cl)cc1 | inconclusive: 6.31 µM [inhibitor, partial curve]
COc1ccccc1-c1ncnn1-c1sc2c(c1C#N)CCCCC2 | inconclusive: 20 µM [inhibitor, partial curve]
Clc1ccc(-c2noc(CSc3nnc(-c4ccncc4)n3-c3ccccc3)n2)cc1 | inconclusive: 28.2 µM [inhibitor, partial curve]
Cc1c(Cl)cccc1NC(=O)c1cc(C2CC2)on1 | inconclusive: 22.4 µM [inhibitor, partial curve]
CCC(=O)n1nc(-c2ccco2)nc1SCc1ccccc1 | inactive
Cc1ccc(SCCNC(=O)CN2C(=O)c3ccccc3S2(=O)=O)cc1 | inconclusive: 39.8 µM [inhibitor, partial curve]
OCCCCNCc1ccc(OCc2ccc(Cl)cc2Cl)cc1 | inconclusive: 7.08 µM [inhibitor, full curve]
